# Screen size: about 350,000 compounds; about 9,900 (2.8%) were called active. This list was built around the results that the source calls inconclusive (neither active nor inactive); the mix of calls is not that of the screen. The call rests on the fitted dose curve; in most records, active means well fitted activation curve with a large enough effect; inconclusive means small, poorly fitted or top-dose-only effect; inactive means no such curve, though single readings can be large or run the other way. Potencies of inconclusive entries are left out as doubtful fits.
# Test: A quantitative high throughput screen for small molecules that induce DNA re-replication in MCF 10a normal breast cells. Further: nearly all actives have a fitted effect of over 50% in size. On activity, positive = re-replication: % of control where 0% means no effect.
# Details: MCF 10A DNA re-replication, Hoechst nuclear intensity, 48 h; activity, positive = re-replication: at 46.1 µM (top of the series)
# Potency means the concentration at half of the fitted maximal effect; tags describe the fitted curve by direction and shape.
Structure (SMILES),Potency,"activity, positive = re-replication"
Cc1ccc(S(=O)(=O)Nc2ccc(=O)n(Cc3ccc(Cl)c(Cl)c3)c2)cc1,"inconclusive [activator, partial curve, poor fit]",
CCN(CC)C(=S)SCC(=O)c1ccccc1,,inactive: 14.6%
O=C(NC(=S)Nc1ccc(Br)cc1)C1CCCCC1,,inactive: 11%
CCCCN(C(=O)c1ccc(NC2CC2)c([N+](=O)[O-])c1)c1c(N)n(CCCC)c(=O)[nH]c1=O,,inactive: 3.74%
CN1/C(=C\C(=O)COc2ccc3c(c2)OCO3)C(C)(C)c2ccccc21,active: 13 µM,
O=C(Nc1ccc(CN2CCOCC2)cc1)c1ccc(-c2cccc(Cl)c2)o1,"inconclusive [activator, single point]",
CCOc1ccc(-c2cc(CCCC(=O)NCc3cccnc3)no2)cc1,,inactive: 1.9%
O=C(/C=C/c1ccccc1[N+](=O)[O-])c1ccc(F)cc1,"inconclusive [activator, single point]",
Cc1cccc(C(=O)N2N=C(c3ccc(NS(C)(=O)=O)cc3)CC2c2cccs2)c1 (stereo unspecified),,inactive: -1%
COc1ccc(-c2nnc(NC(=O)c3cc(Cl)ccc3Cl)o2)cc1,"inconclusive [activator, full curve, poor fit]",
Fc1ccccc1CNc1ccc(Cl)cc1,,inactive: 15.2%
COC(=O)c1ccc(-c2nc3cc(Cl)c(N)cc3s2)cc1,active: 0.651 µM,
Cc1oncc1C(=O)Nc1cccc(C#N)c1,,inactive: 1.02%
Cc1ccc(C)c(N(C(=O)CNC(=O)c2ccco2)C(C(=O)NCC2CCCO2)c2ccccc2)c1 (stereo unspecified),,inactive: -9.34%
CCc1c(C)c(C#N)c2nc3ccccc3n2c1NCc1ccco1,"inconclusive [activator, single point]",
OCC1(Cc2cccc(Cl)c2)CCCN(Cc2ccc3cc(F)ccc3n2)C1 (stereo unspecified),"inconclusive [activator, single point]",
COc1ccc(/C=C/C(=O)NC(=S)NCCc2ccc(OC)c(OC)c2)cc1,"inconclusive [activator, partial curve, poor fit]",
CCOC(=O)Cn1c2[n+](c3ccccc31)CC(O)CS2 (stereo unspecified),"inconclusive [activator, full curve, poor fit]",
O=C(CCS(=O)(=O)c1ccc(Cl)cc1)Nc1nnc(-c2cccs2)o1,"inconclusive [activator, full curve, poor fit]",
CC(NC(=O)c1ccc([N+](=O)[O-])cc1[N+](=O)[O-])c1ccc(-c2ccccc2)cc1 (stereo unspecified),,inactive: 0.385%
CC(=O)Oc1ccc(N(C(C)=O)S(=O)(=O)c2cccs2)c2ccccc12,"inconclusive [activator, full curve, poor fit]",

# Reference: PubChem BioAssay AID624296 (National Center for Advancing Translational Sciences (NCATS), 2012)
